From PubChem BioAssay AID1346428 (National Center for Advancing Translational Sciences (NCATS), 2018) come the findings set out here.

The structures appear in SMILES notation. Values joined by “and” are separate entries in the source; they are usually repeats but may differ in a detail not shown here. Identical values can stand only once. Hit rate of the full screen: of about 48,000 compounds, about 1,200 (2.5%) were called active. Inconclusive results (about 2%) are left out.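 Rule for the calls: active = activation of at least 60% and not above a set upper limit (about 1 call in 100 departs from these limits); inconclusive = activation of 40% to 60%, or above that upper limit; inactive = activation under 40%.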 This is one part of the list.

UniProt O75388, sequence (O75388 whole entry, looked up): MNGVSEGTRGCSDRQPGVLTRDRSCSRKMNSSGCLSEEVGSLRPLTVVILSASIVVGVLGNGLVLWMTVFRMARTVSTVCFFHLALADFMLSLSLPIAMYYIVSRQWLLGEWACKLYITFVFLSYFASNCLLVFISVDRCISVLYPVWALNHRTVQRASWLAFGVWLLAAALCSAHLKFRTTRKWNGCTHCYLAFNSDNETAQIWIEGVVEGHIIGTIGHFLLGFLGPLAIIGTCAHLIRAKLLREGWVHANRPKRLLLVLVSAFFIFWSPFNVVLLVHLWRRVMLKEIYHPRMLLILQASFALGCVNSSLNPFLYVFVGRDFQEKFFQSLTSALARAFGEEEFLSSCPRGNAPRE

This experiment deals with Probable G-protein coupled receptor 32 (Homo sapiens) (UniProt O75388). Nature of the experiment: qHTS for Agonists of Human Resolvin D1 Receptor DRV1. Note: 0% is about no effect. As to conditions: CHO-K1 GPR32 beta-arrestin PathHunter luminescence, 90 min; at 76.9 µM; hits give high values; zero percent set by DMSO-only wells. Summed up:
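Luminescent readout of beta-Gal complementation quantifies ligand-induced beta-arrestin association with GPR32 in CHO-K1 cells; 90 min compound incubation at 37 °C, detection 1 h at room temperature.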
Background: In qHTS, concentration-response curves come from the screen itself.
For `Cc1ccc(Cn2c(=O)c3cccnc3n(Cc3ccc(F)cc3)c2=O)cc1`, the activation is inactive: -20.3%.
In the case of `OC1(c2ccccc2)CCNCC1`, the activation is inactive: -26.5%.
Next, `COc1cccc(N2CCN(c3ncc4c(n3)CCN(Cc3ccc(Br)cc3)C4)CC2)c1`: inactive: -9.4%.
For the compound `Cc1c(C(=O)N(C)C)sc2c1c(=O)n(-c1ccc(F)cc1)c(=O)n2CC(=O)N(C)c1ccccc1`, the activation was inactive: -4.99%.
Next, `COc1ccccc1CNC(=O)CCC1N=C2c3ccccc3N=C(SCC(=O)NCCc3ccccc3)N2C1=O` (configuration not stated): inactive: 0.779%.
As to `Cc1ccc(OC(C)C(=O)NCC2(N3CCOCC3)CCCCC2)cc1C` (configuration not stated), the activation was inactive: -37%.
Next, `CCc1ccc2oc(C(=O)Nc3nc(-c4ccccc4)ns3)c(C)c2c1`: inactive: -2.91%; `Cc1cccc(CNC(=O)c2ccc(Cn3c(SCc4ccccc4)nc4cccnc43)cc2)c1`: inactive: -1.25%; `CCOc1ccc(-n2c(SC(C)C(=O)OC)nc3c([nH]c4ccccc43)c2=O)cc1` (configuration not stated): inactive: -5.87%.
With `Cc1cc2oc(C(=O)Nc3ccc(S(=O)(=O)Nc4onc(C)c4C)cc3)cc(=O)c2cc1C`, the activation was inactive: -0.478%.
Take `COc1ccc(Cl)cc1NC(=O)c1nc(S(C)(=O)=O)ncc1N(Cc1ccc(C)cc1)Cc1ccco1`: the activation is inactive: -18.7%.
As for `O=C(CSc1nc(=O)[nH]c2c1CCCC2)NCc1ccc(Cl)cc1`, the activation is inactive: -0.854%.
For `CCOC(=O)c1c(NC(=O)/C=C/c2ccc(OC)cc2)sc2c1CCC(C)C2` (configuration not stated) the value was inactive: -3.4%.
For `NC[C@H](O)c1ccc(O)c(O)c1` the value was inactive: 2.17% and inactive: -8.95%; for `CCN(CCCNC(=O)c1cc2c(=O)[nH]c3ccc(C)cc3c2s1)Cc1ccccc1`, inactive: -16.6%.
Regarding `Cc1ccccc1C(=O)Nc1sc2c(c1C(=O)N1CCC(C)CC1)CCCC2`, the activation was inactive: -21.8%.
Take `CC(=O)Nc1ccccc1-c1nc2ccccc2n(C(C)C(=O)c2ccc(C)c(C)c2)c1=O` (configuration not stated): the activation was inactive: -2.05%.
Regarding `NC[C@H]1O[C@H](O[C@H]2[C@H](O[C@@H]3O[C@H](CO)[C@@H](O)[C@H]3O)C(O)[C@H](N)C[C@@H]2N)[C@H](N)[C@@H](O)[C@@H]1O` (some centres not stated), the activation is inactive: -40%.
Consider `CCN(c1ccccc1)S(=O)(=O)c1nnc(NC(=O)COc2ccccc2F)s1`, for which the activation is inactive: 13.4%.
Take `CCOc1ccc(CC(=O)NC2CC(=O)N(c3ccc4c(c3)OCCO4)C2)cc1` (configuration not stated): the activation is inactive: 4.72%.
As for `COc1cc(C2C(=O)N(C3CCC(C)CC3)CC(=O)N2CCc2ccc(Cl)cc2)ccc1OC(C)C` (configuration not stated), the activation is inactive: -5.81%.
Turning to `Cc1ccc(NC(=O)CN(C)S(=O)(=O)c2cccc3nsnc23)c(C)c1`, the activation is inactive: -4.51%.
For `COc1ccc(-c2[nH]ncc2C(=O)NCc2ccccc2OC)cc1` the value was inactive: -21.3%.
In the case of `Cc1ccc(Nc2cc(-c3ccccc3)nc(C)n2)cc1`, the activation is inactive: -5.63%.
For `COc1ccc(CNC(=O)C(=O)NCC(c2cccnc2)N2CCN(c3ccccc3F)CC2)cc1` (configuration not stated) the value was inactive: 17.3%.
For the compound `CC(=O)Nc1ccc(S(=O)(=O)Nc2ccc3c(c2)n(C)c(=O)n3C)c(C)c1`, the activation is inactive: -6.18%.
For `Cc1cc(C)n(-c2nc3cc(Cl)c(Cl)cc3nc2Nc2c(C)cccc2C)n1` the value was inactive: 10.1%.
Consider `Cc1ccc(NC(=O)[C@H](Cc2ccccc2)N2Cc3ccccc3C2=O)cc1`, for which the activation was inactive: 24%.
Turning to `Cc1noc(C)c1S(=O)(=O)NCCc1csc2nc(-c3ccc(F)cc3)nn12`, the activation was inactive: -0.0327%.
On to `CCSC1=NC2(CCN(C(=O)NC3CCCCC3)CC2)N=C1c1ccc(C)c(C)c1`, for which the activation was inactive: -11.6%.
Turning to `CCCN(CCC)CCNC(=O)c1cc(Sc2ccc(Cl)cc2)nc2ccccc12`, the activation was inactive: -20.4%.
For `COc1nc(Oc2ccc(=O)n(-c3ccccc3)n2)nc(N(C)C)n1` the value was inactive: -8.93%; for `CCc1cccc(NC(=O)c2ccc3c(=O)n4nc(Nc5ccccc5OC)sc4nc3c2)c1`, inactive: 6.37%.
For `COc1ccc(OC)c(NC(=O)CCc2c(C)nc3c(-c4ccccc4)c(C)nn3c2C)c1` the value was inactive: -7%.
Turning to `CCOC(=O)c1c(NC(=O)c2cc3ccccc3c(=O)o2)sc2c1CCCC2`, the activation is inactive: -3.71%.
In the case of `Cc1cccc(CSCCNC(=O)CN(c2ccccc2)S(=O)(=O)N(C)C)c1`, the activation is inactive: -19.1%.
For `Cc1ccc(S(=O)(=O)c2cn(CC(=O)Nc3ccc4c(c3)OCO4)c3ccc(F)cc3c2=O)cc1` the value was inactive: 1.89%; for `CC(C)NC(=O)c1nn(C)c2c1CS(=O)(=O)c1ccccc1-2`, inactive: -5.86%; for `COC(=O)c1cc(Cl)ccc1NC(=O)Cn1c(C)cc(C)c(C#N)c1=O`, inactive: 4.29%.
For `CCOc1ccccc1CN(CCc1ccc2c(c1)OCO2)Cc1cc(OC)c(OC)cc1OC` the value was inactive: -23.2%.
`COc1ccccc1CNc1nc(-c2ccco2)nn1S(=O)(=O)c1ccc(C)cc1`: the activation was inactive: -34.1%.
Next, `Clc1ccc(CN2CCc3nc(Nc4ccc5c(c4)OCCO5)ncc3C2)cc1`: inactive: 9.01%; `CCOC(=O)N1CCC(NC(=O)c2cnn(-c3cccc(C)c3)c2C2CCN(C(=O)OC(C)(C)C)CC2)CC1`: inactive: -11.5%; `CCCCCCOc1ccccc1C(N)=O`: inactive: 23.6%.
For `CCn1c(=O)c2sccc2n2c(CCCC(=O)N3CCN(c4ccccc4OC)CC3)nnc12` the value was inactive: -15.6%.
For `Cc1ccccc1C(=O)NCc1ccc2c(c1)CCN2C(=O)c1ccccc1` the value was inactive: -30.3%; for `Cc1ccc(-c2nsc(NC(=O)c3oc4cc(C)c(Cl)cc4c3C)n2)cc1`, inactive: 3.25%.
In the case of `CCn1c(SCC(=O)Nc2cccc(Cl)c2)nnc1-c1nonc1NC(C)=O`, the activation is inactive: -19.4%.
As for `COc1ccc(CNC(=O)C(=O)NCC(c2cccs2)S(=O)(=O)c2ccc(C)cc2)cc1` (configuration not stated), the activation was inactive: -15.8%.
In the case of `O=C(c1ccc(F)cc1)N1c2ncnn2C2(CCCCC2)[C@@H]2CCCC[C@@H]21`, the activation was inactive: -5.05%.
In the case of `COc1cc2[nH]c(=O)n(Cc3ccc(C(=O)N4CCN(c5cccc(C)c5C)CC4)cc3)c(=O)c2cc1OC`, the activation was inactive: -4.64%.
With `CCOC(=O)c1ccc(NC(=O)c2ccc3c(c2)CCN3S(=O)(=O)c2ccc(Cl)cc2)cc1`, the activation was inactive: -6.93%.
For the compound `COc1ccc(CNC(=O)c2cc(Nc3ccc(OC)cc3OC)nc3ccccc23)cc1`, the activation was inactive: -21.1%.
For `Cc1cccc(NS(=O)(=O)c2nnc(NC(=O)C3CCCCC3)s2)c1` the value was inactive: -9.28%; for `CC(CNC(=O)c1ccc(Cn2c(SCc3ccccc3)nc3cccnc32)cc1)c1ccccc1` (configuration not stated), inactive: -4.81%.
For `Cc1ccc(-n2nc(CO)c(C(=O)NCCO)n2)cc1` the value was inactive: -0.872%; for `COc1ccc(CCNC(=O)Cn2nnc(-c3cccc(C(F)(F)F)c3)n2)cc1OC`, inactive: -8.7%; for `Cc1ccc(C)c(CN2C(=O)c3ccccc3Sc3ccc(C(=O)NCCCOC(C)C)cc32)c1`, inactive: -30.5%.
For `COc1ccc2oc(=O)cc(CN3CCN(C(=O)c4ccccc4)CC3)c2c1` the value was inactive: -7.88%; for `O=C(Nc1ccc(O)c(-c2nc3ccccc3o2)c1)c1cccs1`, inactive: 24.1%; for `CCOc1ccc(NC(=O)c2oc3ccccc3c2NC(=O)Cc2ccc(OC)c(OC)c2)cc1`, inactive: -0.472%.
`CC(C)c1nn2c(=O)cc(COC(=O)c3ccc(NC(=O)c4ccccc4Cl)cc3)nc2s1`: the activation was inactive: -12.5%.
With `CCOC(=O)c1ccc(N2C(=O)c3n[nH]c(C)c3C2c2ccc(C(C)C)cc2)cc1` (configuration not stated), the activation is inactive: 16.2%.
On to `O=C(CSc1n[nH]c(-c2ccccc2Cl)n1)N1CCN(c2ccc(F)cc2)CC1`, for which the activation was inactive: -9.7%.
For `CCOC(=O)c1c(NC(=O)c2ccc(S(=O)(=O)N(C)C)cc2)sc2c1CCN(C)C2` the value was inactive: -34.2%.
Consider `CCCCSCCCNC(=O)c1cc(-c2cccnc2)nc2ccc(S(=O)(=O)N3CCC(C)CC3)cc12`, for which the activation is inactive: -3.83%.
On to `COc1ccc(NC(=O)Cn2c(=O)n(CC3CCCO3)c(=O)c3ccccc32)cc1` (configuration not stated), for which the activation was inactive: -30.6%.
In the case of `CCCCCCNc1ncnc2c1sc1nc(N3CCOCC3)c3c(c12)CCCC3`, the activation was inactive: 1.33%.
Next, `CCCN(C(=O)c1nn(-c2ccc(C)cc2)c(=O)c2c1c1ccccc1n2C)c1ccccc1C`: inactive: -0.196%; `Cc1oc2ccc(O)c(CN3CCN(Cc4ccccc4)CC3)c2c1C(=O)Nc1cccc(Cl)c1C`: inactive: -16.4%; `c1ccc2c(c1)CC(N1CCN(c3cccc4c3OCCO4)CC1)C2`: inactive: 9.71%.
Turning to `O=C(Nc1cccc(C(=O)N2CCN(c3ccc(F)cc3)CC2)c1)c1nsc2ccccc12`, the activation is inactive: -17.2%.
For `C[C@](Cc1ccc(O)c(O)c1)(NN)C(=O)O`, the activation is inactive: 0.83%.
Next, `O=C(Nc1ccc(Oc2ccccc2)cc1)C1CCN(S(=O)(=O)c2ccccc2)CC1`: inactive: 32.3%.
For `CCOc1ccc(NC(=O)c2cnn3c(C(F)F)cc(-c4ccc(C)cc4)nc23)cc1`, the activation was inactive: -4.06%.
`COc1ccccc1/C=C/c1nc(C#N)c(NC(C)c2ccccc2)o1` (configuration not stated): the activation is inactive: -21.8%.
For `Cc1c(Cl)cccc1NC(=O)CN1C(=O)CSc2ccc(S(=O)(=O)N3CCCC3)cc21` the value was inactive: -24.8%; for `CC(=O)c1cc(-c2ccc(F)cc2)n(CCC(=O)NCc2ccc(C)cc2)c1C`, inactive: -21.5%; for `Cc1ccccc1CCNCc1c(C(=O)O)c(C)n(Cc2c(F)cccc2Cl)c1C`, inactive: 9.3%.
Regarding `Cc1ccc(NC(=O)CN2CCN(C3CCCCC3)C(=O)C2=O)cc1`, the activation was inactive: -17.9%.
Next, `CC(C)(C)C(=O)OCOC(=O)C1N2C(=O)CC2S(=O)(=O)C1(C)C` (configuration not stated): inactive: 15.9%; `CCc1ccc(Sc2cc(C(=O)NCCCN3CCCC(C)C3)c3ccccc3n2)cc1` (configuration not stated): active: 88%.
